Measured values from ChEMBL document CHEMBL4888484, “Replenishing the malaria drug discovery pipeline: Screening and hit evaluation of the MMV Hit Generation Library 1 (HGL1) against asexual blood stage Plasmodium falciparum ,using a nano luciferase reporter read-out” (2022).
Among all 150,000 compounds or so, about 540 (0.36%) showed an effect of 50% or more. This is one part of the list.

Test system: Plasmodium falciparum
Experiment: Primary screen in NF54 nanoGlo assay, in single point, at 2uM, 72h; a lower Z score goes with more inhibition
Format: functional, Erythrocyte
Details: timepoint 72 hour

SMILES | % Inhibition | Z score
CS(=O)(=O)N1CCOc2ccc(F)cc2C1 | -12% | 1.59
Cc1cccc(C(=O)N2CCCCCNC(=O)[C@@H]3CCC[C@@H]32)c1 | -7% | 0.94
COCc1cn(C[C@H]2C[C@@H](NC(=O)C3CCCC3)[C@H](O)[C@@H]2O)nn1 | 31% | -3.47
O=C1Nc2ncccc2O[C@H]1CCN1CCN(Cc2ccccc2)CC1 | -2% | 0.27
CCC(=O)N1CCCC[C@@]1(C)c1noc(-c2ccc(F)cc2)n1 | -6% | 0.92
Cc1cc(C(=O)N2C[C@H](C)Oc3ccccc32)on1 | -17% | 2.19
CC1(C)C[C@@H](NC(=O)c2nccc3occc23)CCS1(=O)=O | 3% | -0.55
CN1CCCC[C@@H]1CN1CCN(C(=O)c2cc(F)cc(F)c2)CC1 | 1% | -0.1
C[C@H](OC(=O)c1ccc(N2C(=O)c3ccccc3C2=O)cc1)C(=O)Nc1ccc2c(c1)OCCO2 | 10% | -1.53
COC(=O)c1cnc2c(c1)n(Cc1coc(C)n1)c(=O)n2CC(C)C | -13% | 2.43
COc1ccc(CC[C@H](C)NC2CCCC2)cc1 | -7% | 1.3
CCN(CC)CCNC(=O)c1ccc(-c2nc(CCN(C)C(=O)c3ccc(C)cc3)no2)cc1 | -10% | 0.94
O=C(Cn1cnc2nc(N3CCOCC3)ncc2c1=O)NCc1ccc(F)c(Cl)c1 | 1% | -0.16
Cc1cc(COc2ccccc2)oc1C(=O)N[C@@H](C)Cc1cnccn1 | -9% | 0.87
CC(=O)c1ccc(-c2nc(C)nc(N3CCCC3)c2N)cc1 | -11% | 1.62
CC(C)OCC[C@H]1CCCCN1CCN1C(=O)CCC1=O | 6% | -0.78
CCc1ccc(CCNC(=O)N2CCC3(CCO3)CC2)cc1 | -3% | 0.57
Cc1cc(C(=O)Nc2cnccc2NC2CC2)n(C)n1 | 9% | -1
COC1CC(N(C)c2ncnc3c2nnn3C(C)C)C12CCC2 (stereo unspecified) | -4% | 0.82
O=C(NCC[C@@H](CCO)c1cccs1)c1ccccc1 | 3% | -0.38
CC(=O)OCC(OC(C)=O)C(OC(C)=O)C(OC(C)=O)C(=O)Nc1ccc(C)cc1C (stereo unspecified) | -19% | 2.09
Cc1ccsc1-c1cn(Cc2c(CO)cnc(C)c2O)nn1 | -3% | 0.5
CC(C)c1nn(C)cc1-c1noc(C(F)=C2CCCC2)n1 | 4% | -0.58
